Experimental data: patent EP4574844A1 (Numab Therapeutics AG, dated 2025)

Tests used:
[1] = target: human PD-L1 on the cell surface (human, UniProt Q9NZQ7); test: cell-based or functional assay
[2] = target: human CD47 on the cell surface (human, UniProt Q08722); test: cell-based or functional assay

UniProt Q9NZQ7, sequence (Q9NZQ7 19-290): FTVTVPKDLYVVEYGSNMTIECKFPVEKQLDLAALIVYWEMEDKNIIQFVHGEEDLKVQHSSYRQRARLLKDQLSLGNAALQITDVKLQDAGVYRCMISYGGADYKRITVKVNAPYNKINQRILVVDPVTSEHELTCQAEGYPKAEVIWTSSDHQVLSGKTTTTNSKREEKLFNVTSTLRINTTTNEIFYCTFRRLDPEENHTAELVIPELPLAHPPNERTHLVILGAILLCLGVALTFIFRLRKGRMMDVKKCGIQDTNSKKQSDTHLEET

Binder | PD-L1 driven EC50 [nM], phagocytosis of H292 cells [1] | CD47 driven EC50 [nM], phagocytosis of H292 cells [2] | CD47 driven EC50 [nM], phagocytosis of RBCs [2]
PRO4711 (antibody, human IgG1, lambda) DIQMTQSPASLSASVGDRVTITCQASQSIGTYLAWYQQKPGKPPKLLIYRAFILASGVPSRFSGSGSGTDFTLTISSLQPEDFATYYCQSNFYSDSTTIGPNAFGTGTKVTVLGGGGGSGGGGSGGGGSGGGGSEVQLVESGGGLVQPGGSLRLSCAASGFSFNSDYWIYWVRQAPGKGLEWIASIYGGSSGNTQYASWAQGRFTISRDNSKNTVYLQMNSLRAEDTAVYFCARGYVDYGGATDLWGQGTLVTVSS[letters of human IgG1 Fc with changes left out]GGGGSGGGGSDVQMTQSPSSLSASVGDRVTITCQASQSIGSNLAWYQQKPGKPPKLLIYKASTLESGVPSRFSGSGSGTDFTLTISSLQPEDFATYYCQSTAGSSRSGNYGYVFGCGTKVTVLGGGGGSGGGGSGGGGSGGGGSQQLVESGGGRVQPGGSLRLSCAASGFSFTNNYYMCWVRQAPGKCLEWIACMLVGAWGNTYYASWANGRFTISKDNSKNTVYLQMNSLRAEDTATYFCARARDYTWTLGGDPETSGFNLWGQGTQVTVSS heavy: QVQLVQSGAEVKKPGSSVKVSCKASGYTFSSYAISWVRQAPGQGLEWMGGISPIFGTANYAQKFQGRVTITADESTSTAYMELSSLRSEDTAVYYCARDAGRSSDVGWYVGAIDVWGQGTLVTVSSASTKGPSVFPLAPSSKSTSGGTAALGCLVKDYFPEPVTVSWNSGALTSGVHTFPAVLQSSGLYSLSSVVTVPSSSLGTQTYICNVNHKPSNTKVDKKVEPKSCDKTHTCPPCPAPELLGGPSVFLFPPKPKDTLMISRTPEVTCVVVDVSHEDPEVKFNWYVDGVEVHNAKTKPREEQYNSTYRVVSVLTVLHQDWLNGKEYKCKVSNKALPAPIEKTISKAKGQPREPQVYTLPPCREEMTKNQVSLSCAVKGFYPSDIAVEWESNGQPENNYKTTPPVLDSDGSFFLVSKLTVDKSRWQQGNVFSCSVMHEALHNHYTQKSLSLSPGKGGGGSGGGGSDVQMTQSPSSLSASVGDRVTITCQASQSIGSNLAWYQQKPGKPPKLLIYKASTLESGVPSRFSGSGSGTDFTLTISSLQPEDFATYYCQSTAGSSRSGNYGYVFGCGTKVTVLGGGGGSGGGGSGGGGSGGGGSQQLVESGGGRVQPGGSLRLSCAASGFSFTNNYYMCWVRQAPGKCLEWIACMLVGAWGNTYYASWANGRFTISKDNSKNTVYLQMNSLRAEDTATYFCARARDYTWTLGGDPETSGFNLWGQGTQVTVSS light: QSVLTQPPSASGTPGQRVTISCSGSSSNIGSNYVYWYQQLPGTAPKLLIYRNNQRPSGVPDRFSGSKSGTSASLAISGLRSEDEADYYCAAWDDSLSGVVFGGGTKLTVLGQPKAAPSVTLFPPSSEELQANKATLVCLISDFYPGAVTVAWKADSSPVKAGVETTTPSKQSNNKYAASSYLSLTPEQWKSHRSYSCQVTHEGSTVEKTVAPTECS | 0.11 nM | 6.76 nM | 6.25 nM
PRO3843 (antibody, human IgG1, lambda) heavy 1: QVQLVQSGAEVKKPGSSVKVSCKASGYTFSSYAISWVRQAPGQGLEWMGGISPIFGTANYAQKFQGRVTITADESTSTAYMELSSLRSEDTAVYYCARDAGRSSDVGWYVGAIDVWGQGTLVTVSSASTKGPSVFPLAPSSKSTSGGTAALGCLVKDYFPEPVTVSWNSGALTSGVHTFPAVLQSSGLYSLSSVVTVPSSSLGTQTYICNVNHKPSNTKVDKKVEPKSCDKTHTCPPCPAPELLGGPSVFLFPPKPKDTLMISRTPEVTCVVVDVSHEDPEVKFNWYVDGVEVHNAKTKPREEQYNSTYRVVSVLTVLHQDWLNGKEYKCKVSNKALPAPIEKTISKAKGQPREPQVYTLPPCREEMTKNQVSLSCAVKGFYPSDIAVEWESNGQPENNYKTTPPVLDSDGSFFLVSKLTVDKSRWQQGNVFSCSVMHEALHNHYTQKSLSLSPGKGGGGSGGGGSDVQMTQSPSSLSASVGDRVTITCQASQSIGSNLAWYQQKPGKPPKLLIYKASTLESGVPSRFSGSGSGTDFTLTISSLQPEDFATYYCQSTAGSSRSGNYGYVFGCGTKVTVLGGGGGSGGGGSGGGGSGGGGSQQLVESGGGRVQPGGSLRLSCAASGFSFTNNYYMCWVRQAPGKCLEWIACMLVGAWGNTYYASWANGRFTISKDNSKNTVYLQMNSLRAEDTATYFCARARDYTWTLGGDPETSGFNLWGQGTQVTVSS heavy 2: EVQLVESGGGLVKPGGSLRLSCAASGFTFSNAWMNWVRQAPGKGLEWVGRIKTKADGGTTDYAAPVKGRFTISRDDSKNTLYLQMNSLKTEDTAVYYCTTDPGEYWDSVYGGMDYWGQGTLVTVSSASTKGPSVFPLAPSSKSTSGGTAALGCLVKDYFPEPVTVSWNSGALTSGVHTFPAVLQSSGLYSLSSVVTVPSSSLGTQTYICNVNHKPSNTKVDKKV[letters of human IgG1 Fc with changes left out]GGGGSGGGGSDVQMTQSPSSLSASVGDRVTITCQASQSIGSNLAWYQQKPGKPPKLLIYKASTLESGVPSRFSGSGSGTDFTLTISSLQPEDFATYYCQSTAGSSRSGNYGYVFGCGTKVTVLGGGGGSGGGGSGGGGSGGGGSQQLVESGGGRVQPGGSLRLSCAASGFSFTNNYYMCWVRQAPGKCLEWIACMLVGAWGNTYYASWANGRFTISKDNSKNTVYLQMNSLRAEDTATYFCARARDYTWTLGGDPETSGFNLWGQGTQVTVSS light: QSVLTQPPSASGTPGQRVTISCSGSSSNIGSNYVYWYQQLPGTAPKLLIYRNNQRPSGVPDRFSGSKSGTSASLAISGLRSEDEADYYCAAWDDSLSGVVFGGGTKLTVLGQPKAAPSVTLFPPSSEELQANKATLVCLISDFYPGAVTVAWKADSSPVKAGVETTTPSKQSNNKYAASSYLSLTPEQWKSHRSYSCQVTHEGSTVEKTVAPTECS | 0.08 nM | 10.2 nM | 10.4 nM
